The whole screen tested about 110,000 compounds, of which about 230 (0.21%) showed an effect of 50% or more. The list shows a part of the results.
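Further: 30 min substrate incubation versus DMSO and 10 µM JCP410 controls.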

Chain of DPAP1 (Q8IIJ9 whole entry, looked up): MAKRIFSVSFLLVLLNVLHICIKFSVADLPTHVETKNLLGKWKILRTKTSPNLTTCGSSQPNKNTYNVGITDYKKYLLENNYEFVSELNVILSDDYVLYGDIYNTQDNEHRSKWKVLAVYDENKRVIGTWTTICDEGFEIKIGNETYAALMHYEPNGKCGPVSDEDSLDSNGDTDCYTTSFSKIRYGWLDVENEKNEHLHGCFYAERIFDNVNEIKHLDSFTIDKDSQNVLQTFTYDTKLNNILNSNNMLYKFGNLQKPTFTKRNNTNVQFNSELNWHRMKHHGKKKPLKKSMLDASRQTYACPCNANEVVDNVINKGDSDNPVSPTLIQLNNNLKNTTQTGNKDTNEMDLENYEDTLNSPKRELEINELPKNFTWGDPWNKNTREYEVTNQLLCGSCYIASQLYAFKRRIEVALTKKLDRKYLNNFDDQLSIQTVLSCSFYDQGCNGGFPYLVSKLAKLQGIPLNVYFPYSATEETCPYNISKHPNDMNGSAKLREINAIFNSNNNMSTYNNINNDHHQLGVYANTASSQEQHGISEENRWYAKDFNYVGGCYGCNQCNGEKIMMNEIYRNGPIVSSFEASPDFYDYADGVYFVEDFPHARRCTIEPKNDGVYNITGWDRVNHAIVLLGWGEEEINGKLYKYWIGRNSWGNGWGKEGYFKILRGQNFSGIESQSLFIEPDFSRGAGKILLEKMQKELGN

This test concerns the target DPAP1 (Plasmodium falciparum, UniProt Q8IIJ9). In words: primary screen, percent inhibition; read by cleavage of a fluorogenic dipeptide substrate; higher = more effect of the substance. Set-up: species or system P. falciparum D10 trophozoite lysates; single well.
Consider `COc1ccc(C2C(C(=O)O)c3ccccc3C(=O)N2Cc2ccc(F)cc2)cc1` (stereo not drawn), for which the “% Inhibition @ 10 uM” value came to 4.33%. Take `Cc1cc(C)n2nc(SCC(=O)NCCC3=CCCCC3)nc2n1`: the “% Inhibition @ 10 uM” value worked out at 2.79%.

As for `COc1ccc(C2C(C#N)=C(N)N(c3ccc(Br)cc3)C3=C2C(=O)CCC3)cc1` (stereo not drawn), the “% Inhibition @ 10 uM” value was -1.06%. As for `Cc1sc2nc3n(c(=O)c2c1C)CCCCC3`, the “% Inhibition @ 10 uM” value is given as -7.5%. For the compound `O=C(CCCOc1ccc(Cl)cc1Cl)N1CCc2ccccc2C1`, the “% Inhibition @ 10 uM” value stood at 1.35%.

Take `CNC(=O)NC1C(NC(=O)NC)N(C)C(=O)N1C` (stereo not drawn): the “% Inhibition @ 10 uM” value is given as -0.178%.

Regarding `Cc1nc(O)c(C#N)c(C)c1[N+](=O)[O-]`, the “% Inhibition @ 10 uM” value is listed as -2.55%.

With `CCOc1ccccc1/C=C1/SC(=O)N(C(C)CC)C1=O` (stereo not drawn), the “% Inhibition @ 10 uM” value is reported as -2.46%.

Take `C=CCOc1ccc(CNCCO)cc1OC`: the “% Inhibition @ 10 uM” value is listed as -2.76%. For `Cc1nc(O)nc(O)c1NC(=O)CSc1nccc(-c2ccc(F)cc2)n1` the value was -1.31%.

As to `O=C1C(c2ccccc2)=C(c2ccccc2)C(=O)N1O`, the “% Inhibition @ 10 uM” value was 3.25%. On to `COc1ccc(OC)c(-c2cc(C(=O)NCCN3CCOCC3)no2)c1`, for which the “% Inhibition @ 10 uM” value is on record as 0.0221%. In the case of `COc1ccccc1/C=C1\N=C(c2ccc(Br)cc2)OC1=O`, the “% Inhibition @ 10 uM” value is reported as 3.47%. As to `O=C1CC(N2CCN(/C=C/c3ccccc3)CC2)C(=O)N1c1ccccc1` (stereo not drawn), the “% Inhibition @ 10 uM” value is recorded as 4.65%. On to `N#CC1=C(N)Oc2cc(O)ccc2C1c1ccccc1` (stereo not drawn), for which the “% Inhibition @ 10 uM” value is listed as 1.7%. For `O=C(Nc1cccc(-c2nc3ncccc3o2)c1)c1cc2ccccc2o1` the value was -3.05%; for `CCOC(=O)C1=C(CC)N=C(CC)/C(=C(/O)OCC)C1C(=O)O` (stereo not drawn), 0.989%.

With `COc1cc(CN2CCN(c3cccc(C(F)(F)F)c3)CC2)cc2c1OCO2`, the “% Inhibition @ 10 uM” value was 4.03%.

On to `CC1CCc2oc3ccc(NS(=O)(=O)c4cccs4)cc3c2C1` (stereo not drawn), for which the “% Inhibition @ 10 uM” value is reported as -4.49%.

For the compound `Cc1cc2oc(C(=O)N(Cc3ccc(C(C)C)cc3)C3CCS(=O)(=O)C3)cc(=O)c2cc1C` (stereo not drawn), the “% Inhibition @ 10 uM” value is recorded as -1.47%.

In the case of `COc1ccc2nc(N3CCCC(C(=O)NCc4ccc5c(c4)OCO5)C3)sc2c1` (stereo not drawn), the “% Inhibition @ 10 uM” value was -4.65%. In the case of `Cc1ccc2onc(CNC(=O)N3CCc4ccccc4C3)c2c1`, the “% Inhibition @ 10 uM” value came out at 4.8%.

In the case of `COc1cc(CNCCO)cc(Br)c1OCc1ccccc1`, the “% Inhibition @ 10 uM” value was 3.35%. Consider `C=CCNC(=O)C1=CC(c2ccc(C)cc2)=NS(=O)(=O)N1C`, for which the “% Inhibition @ 10 uM” value turned out to be 3.92%. Take `CSc1ccccc1-c1ccc(C(=O)N[C@@H](CC(C)C)C(=O)NCC#N)cn1`: the “% Inhibition @ 10 uM” value is reported as -5.2%. Regarding `Cc1nn2c(c1-c1ccccc1)NC(C(F)(F)F)(C(F)(F)F)NC2=O`, the “% Inhibition @ 10 uM” value turned out to be 0.709%. With `Cc1ccc(S(=O)(=O)NCc2ccc(C(=O)NCCN(CC(C)C)CC(C)C)cc2)cc1`, the “% Inhibition @ 10 uM” value was determined as 4.81%. For `COC(=O)c1cncn1C(C)c1ccccc1` (stereo not drawn), the “% Inhibition @ 10 uM” value is -3.41%. For `C=CCc1cc(C=C2C(=O)c3ccccc3C2=O)cc(OC)c1OCC(=O)O`, the “% Inhibition @ 10 uM” value is reported as 1.84%. For `O=C(CNS(=O)(=O)c1ccc(Cl)cc1)N1CCN(C(c2ccccc2)c2ccccc2)CC1`, the “% Inhibition @ 10 uM” value is reported as -0.469%. Next, `CN(C1CCS(=O)(=O)C1)S(=O)(=O)c1ccc(Cl)cc1` (stereo not drawn): -2.91%; `CCNCC(=O)N1c2ccccc2CCc2ccc(NC(C)=O)cc21`: 4.63%; `O=C(O)CCn1[nH]c(=O)ccc1=O`: -3.53%. In the case of `OCCC1CCCCN1Cc1ccc2c(c1)OCO2` (stereo not drawn), the “% Inhibition @ 10 uM” value is -5.11%. `CCC(NC(=O)Nc1ccc(C)cc1C)(C(F)(F)F)C(F)(F)F`: the “% Inhibition @ 10 uM” value is 2.58%. As to `O=c1/c(=C\c2ccc(Br)cc2)sc2nc3ccccc3n12`, the “% Inhibition @ 10 uM” value amounted to 0.634%. Next, `Cc1cc(C)nc(NC(=O)CCSCCC(=O)Nc2cc(C)cc(C)n2)c1`: 5.42%; `COC(=O)c1sc2nc3n(c(=O)c2c1C)N=C(c1cc2cc(Cl)ccc2oc1=O)CS3`: 0.759%; `O=C(O)c1cc(-c2cccc(O)c2)nc2ccc(Br)cc12`: -2.78%. For the compound `CN(C)c1nc(N)nc(COC(=O)c2ccc(-n3cnnc3)cc2)n1`, the “% Inhibition @ 10 uM” value worked out at 1.76%. For `Cc1ccc(-n2nc(C)c(/C=N/c3ccc(S(=O)(=O)Nc4nc(C)cc(C)n4)cc3)c2O)c(C)c1` the value was 5.58%; for `Cc1ccc2cc(C)c(NCc3ccccn3)nc2c1`, 5.16%. With `N#CCC(=O)NCCc1ccccc1`, the “% Inhibition @ 10 uM” value was determined as 3.04%.

For the compound `O=C(Nc1ccccc1Br)c1ccc(-c2ccccc2)cc1`, the “% Inhibition @ 10 uM” value was found to be 0.605%. On to `O=C1C=C(N2CCN(Cc3ccccc3)CC2)C(=O)N1c1ccc(Cl)cc1`, for which the “% Inhibition @ 10 uM” value stood at 1.4%. Next, `COc1cc2c(cc1OC)CN(Cc1ccc(C)o1)CC2`: 2.06%; `Cc1ccc(N2C(=O)CC(N3CCCN(C)CC3)C2=O)cc1` (stereo not drawn): 4.33%; `COc1cc(CNS(=O)(=O)c2ccc(CN3C(=O)c4ccccc4C3=O)cc2)cc(OC)c1OC`: 5.98%. With `COc1cc2c(cc1OC)C(c1cccc(O)c1)NCC2` (stereo not drawn), the “% Inhibition @ 10 uM” value is given as -5.5%. Consider `CC(=O)N(CN1C(=O)c2ccc(Br)cc2C1=O)c1ccc(Cl)cc1`, for which the “% Inhibition @ 10 uM” value is listed as -4.82%.

Turning to `O=S(=O)(c1cccc2cccnc12)N1CCOCC1`, the “% Inhibition @ 10 uM” value was -0.687%.

These data come from publication PMC6919601, “Identification of Plasmodium dipeptidyl aminopeptidase allosteric inhibitors by high throughput screening” (PLoS ONE, 2019).
